# Reference: PubChem BioAssay AID1956 (SRMLSC, 2009)
# The other results are listed elsewhere or left out. Shown are side measurements of this screen, not its main read-out; they come without a call.
# Test: enhancers of HSV replication in host cells, fold increase, host cell viability (AID 1956); also: tested in PC3 cells
# Conditions: HSV replication augmentation in cells; fold increase: measured here: primary screen fold increase 10 uM, at 10 µM, stronger effect = higher value; viability: measured here: host cell viability series, at 25 µM, stronger effect = lower value
Compound,fold increase,viability
Cc1c(Cl)cccc1N(Cc1ccc(C(=O)O)cc1)S(=O)(=O)c1ccccc1,1.33,94.7%
CN1c2ccccc2C(C)(C)[C@]12C=Cc1cc(O)ccc1O2,1.73,50%
CCOC(=O)CNc1nc(OCC#N)nc(N2CCOCC2)n1,1.42,103%
CCC(=O)Nc1ccc(NC(=O)CSc2nnc(C(C)C)n2C)cc1,1.13,–
CCCCCCc1cc2cc(-c3nnc(-c4ccccc4)o3)c(=O)oc2cc1O,7.73,56.1%
CN1CCc2c(sc3nc(SCC(N)=O)n(-c4ccccc4)c(=O)c23)C1,1.34,97.9%
O=C1/C(=C/c2cccs2)Sc2ccccc21,1.34,–
COc1ccccc1CC(=O)Nc1ccc([N+](=O)[O-])cc1O,2.16,90.5%
O=C1/C(=C/c2ccc(O)cc2)SC(=S)N1CC1CCCO1 (centres undefined),4.8,80.4%
CCS(=O)(=O)N1N=C(c2cccc(NS(C)(=O)=O)c2)CC1c1ccccc1 (centres undefined),1.97,93.2%
CCn1c2ccccc2c2c3ncc4cccn4c3ccc21,1.43,59.8%
COC(=O)c1c(Cl)c2n3ccccc3c(C)c(-c3ccccc3)c-2c1C(=O)OC,1.32,–
Cc1ccc(C)c(N2CCN(C(=O)c3cc4ccccn4n3)CC2)c1,1.44,90.1%
Cc1cccc(S(=O)(=O)N2CN(Cc3ccco3)c3nc4ccccc4nc32)c1,1.5,101%
Cc1ccn2cc(CC(=O)O)nc2c1,1.4,102%
N#C/C(=C\c1ccc(-c2cccc(Cl)c2)o1)C(=O)Nc1cccc2cccnc12,1.12,–
CSc1nsc(/C=C/Nc2ccc(C)cc2)c1C#N,1.61,90.6%
Cc1ccc[n+](-c2nc([O-])sc2C=O)c1,1.39,93.4%
CN(C)/C=C(\C#N)C(=O)Nc1ccc(O)cc1F,1.34,89.7%
CN1C(=CC=C2C=C(I)C(=O)C(I)=C2)C(C)(C)c2ccccc21,3.3,72.1%
Cc1ccc(S(=O)(=O)NNC(=S)NC(C)(C)C)cc1,1.32,–
CC[n+]1c(/C=C/C=C/N(C(C)=O)c2ccccc2)sc2ccccc21,2.79,76.2%
CCOC(=O)/C=c1\s/c(=C\c2c(OC)ccc3ccccc23)c(=O)n1CC(=O)NCC1CCCO1 (centres undefined),2.23,47.4%
C=CCSc1nc(N)c(C(=O)Nc2ccccc2OC)cc1C(=O)Nc1ccccc1,1.17,–

Compound,fold increase,viability
OCCCc1nc2n(n1)C(c1ccccc1Cl)C=C(c1cccs1)N2 (centres undefined),1.47,97.4%
CCN(CC)c1ccc2cc(NC(=O)CCC(=O)O)c(=O)oc2c1,1.64,97.3%
CNC(=O)/C(C#N)=C/c1ccc(-c2nc3ccccc3s2)o1,1.45,–
CC(=O)Oc1cc2cccc(OC(C)=O)c(=O)c2c(OC(C)=O)c1OC(C)=O,1.4,79.2%
COc1cc(/C=C2\SC(=S)N(NS(=O)(=O)c3ccc(C)cc3)C2=O)ccc1O,7.81,96.2%
CCNC(=O)COC(=O)c1cc(-c2ccco2)nc2ccccc12,1.32,–
Cc1sc2ncn(CC(=O)Nc3cccc(S(N)(=O)=O)c3)c(=O)c2c1-c1ccccc1,1.38,94.9%
CCOC(=O)N1CCc2c(sc(NC(=O)CN(CC)CC)c2C#N)C1,1.32,–
CCOC(=O)c1ccc(NC(=O)Cn2cc3c(n2)CCC(C)C3)cc1 (centres undefined),1.33,104%
O=C(CN1CCC2(CC1)OCCO2)c1ccc2cc[nH]c2c1,1.38,98.5%
N#Cc1cc2ccccc2nc1SCc1ccccn1,1.55,87.6%
CCOc1cc([N+](=O)[O-])cc2c1C(=O)Nc1ccccc1O2,1.45,96.3%
COc1cc(/C=C(\C#N)c2nc3ccccc3[nH]2)cc(OC)c1O,9.25,86.8%
Nc1c(C(=O)N/N=C/c2ccccc2Cl)oc2nc(-c3ccccc3)cc(-c3ccco3)c12,1.34,95.6%
CC1=Nc2ccccc2/C1=C/c1sc(=S)n(-c2cccc(C(=O)O)c2)c1O,6.39,91.8%
N#C/C(=C(/O)c1ccco1)c1nc2ccccc2[nH]1,1.38,98%
COc1cc(-c2cc(C(=O)Nc3ccc(S(=O)(=O)Nc4ncccn4)cc3)c3ccccc3n2)cc(OC)c1OC,1.4,97.5%
C=CCNC(=O)C1CC2Cn3c(nc4ccccc43)C2N1C (centres undefined),1.35,99.7%
CC(C)(C)C(=O)Oc1ccc2cc(-c3ccc4ccccc4n3)c(=O)oc2c1,4.27,90.5%
S=C(Nc1cccnc1)NC1CCCC1,1.32,99.7%
Cc1cc(C(=O)NNc2ccccc2F)no1,1.37,89.7%
O=C1NC(=O)/C(=C\c2ccc(OCc3cnc(Cl)s3)cc2)S1,1.69,103%
CCOC(=O)c1sc(S(C)=O)c2c1CCc1conc1-2 (centres undefined),1.38,94.6%
O=C1/C(=C/C=C/c2ccco2)SC(=S)N1c1ccc(O)cc1,1.33,–

Compound,fold increase,viability
C(=C\c1ccco1)/C1=NN(c2ccccc2)C(c2ccco2)C1 (centres undefined),2.28,103%
COc1ccc(-n2c(O)c(/C=N/NS(=O)(=O)c3cc(C)ccc3C)c3ccccc3c2=O)cc1OC,6.36,93.1%
Cn1cccc1Cc1nnc(SCC(=O)N2CCc3ccccc32)n1-c1ccc(F)cc1,1.6,–
COc1ccc(-n2c(SCC(=O)Nc3sc4c(c3C#N)CCCC4)nnc2-c2ccccc2OC)cc1,1.13,–
N=C1/C(=C\c2coc3ccc(O)cc3c2=O)C(=O)N=C2SC=CN12,1.64,92.8%
O=C(C1=NN[C@@H]2C(=O)N(c3cccc(F)c3)C(=O)[C@H]12)c1cnccn1,1.34,91.8%
CCN(CC)c1ccc2cc(C(N)=O)/c(=N\NC(=O)c3ccncc3)oc2c1,7.7,75.7%
N#CC(C#N)=C1C=C2C=C(N3CCCCCC3)CCC2CC1 (centres undefined),8.21,73.7%
CCOc1ccc(C2C(C#N)=C(N)SC(N)=C2C#N)cc1OC,1.37,96%
O=C(CCCCl)Oc1ccc2cc(-c3ccc4ccccc4n3)c(=O)oc2c1,4.9,100%
C[n+]1ccc(/C=C/c2c[nH]c3ccccc23)cc1,2.29,79.8%
O=C(O)C1Sc2[nH]c(=O)sc2C2c3cc(Br)ccc3OC(=O)C12 (centres undefined),1.95,99.8%
Cc1ccc(-c2csc(NC(=O)C3=COCCO3)n2)cc1,1.35,92.8%
COC(=O)c1ccccc1-c1ccc(/C=N/NC(N)=O)o1,1.39,96.7%
COc1ccc(CCn2c(-c3ccco3)nc3nc4ccccc4nc32)cc1,1.52,68.3%
COc1ccc(CN(C(=O)Cc2cccs2)C(C(=O)NC2CCCC2)c2ccncc2)cc1 (centres undefined),1.37,97.6%
CCN(CC)S(=O)(=O)c1ccc(S(=O)(=O)N2CCN(CCC#N)CC2)cc1,1.43,96.2%
CCn1c(C)c(C2=CCN(S(=O)(=O)c3ccccc3)CC2)c2ccccc21,1.42,89.9%
O=C(NC(=S)Nc1ccc(Oc2ccc(Cl)cc2)cc1)c1ccccc1,1.22,–
CCC1=C2CC[C@H]3C(=O)N(C)C(=O)[C@H]3[C@H]2[C@@]2(Cc3ccccc3)C(=NCC(=O)OC)OC(=O)N2C1=O,1.22,101%
O=C1N=c2ccccc2=C1c1sc(=S)n(CC2CCCO2)c1O (centres undefined),1.24,–
O=C(COC(=O)c1ccccn1)Nc1ccc2c(c1)OCO2,1.51,95.8%
CN(C)S(=O)(=O)c1ccc(C(=O)Nc2cccc(S(=O)(=O)NC3=NCCC3)c2)cc1,1.32,–
Cc1ccc(NS(=O)(=O)c2cc(C(=O)NCCSC3CCCCC3)ccc2C)cc1,1.33,84.6%

Compound,fold increase,viability
N#Cc1c2nc3ccccc3nc2n2cc(NC(=O)c3ccc(F)cc3)ccc12,2.64,51.6%
N#C/C(=C\c1cc([N+](=O)[O-])c(N2CCOCC2)cc1N1CCOCC1)c1nc2ccccc2[nH]1,1.18,–
CN1C(=O)/C(=C/C=C2\SCCN2C)SC1=S,1.69,103%
C=CCN1C(=O)c2cccc3c(Br)ccc(c23)C1=O,1.38,91.2%
COC(=O)C1=C(C)NC(=O)/C1=C\c1cc(C)n(-c2ccccc2C)c1C,1.36,92.3%
COc1cc(/C=C2\SC(=S)N(Nc3ccccc3)C2=O)ccc1O,6.3,97.9%
Cc1noc(/C=C/c2ccc(-c3ccccc3Cl)o2)c1[N+](=O)[O-],7.53,100%
CN(C)c1ccc(/C=C/c2ccc3ccccc3n2)cc1,2.02,–
CC(C)Cc1oc(C(=O)O)cc1CN,1.39,98.9%
Cc1ccccc1C(=O)Oc1cc(N)n(S(C)(=O)=O)n1,1.43,99.5%
CCCN1C(=O)/C(=C/c2ccc(N3CCOCC3)cc2)NC1=S,1.91,93.3%
N#Cc1c(N)n(-c2ccc(C(=O)O)cc2)c2nc3ccccc3nc12,1.36,95.3%
Cn1cccc1Cc1nnc(SCC(=O)NC2CCCC2)n1CCc1ccccc1,1.39,100%
CCC(C)[C@H](NC(=O)NCC1CCCO1)C(=O)OC (some centres undefined),1.46,96.1%
Cc1ccc(NC(=O)CN(Cc2ccccc2)S(C)(=O)=O)cc1C,1.33,98.7%
CCOC(=O)CC(=O)CSc1nc(-c2ccccc2)cc(-c2ccc(Cl)cc2)c1C#N,1.35,98%
O=C(CC1NCCNC1=O)NC1Cc2ccccc2C1 (centres undefined),1.36,95.1%
NNc1nc2c(-c3ccc(Cl)cc3)nnn2c2ccccc12,1.68,88.5%
COc1ccc(C2=CC(c3ccco3)n3ncnc3N2)cc1 (centres undefined),1.57,94.7%
COc1cc(/C=C(\C#N)C(=O)N2CCc3ccccc32)ccc1O,1.35,96.3%
Cc1c(C(=O)Oc2ccc(-c3cnc4ccccc4n3)cc2)cccc1[N+](=O)[O-],1.38,91.5%
Cc1ccc(/C=[N+](\[O-])c2ccc(N(C)C)cc2)c2nsnc12,1.44,90.7%
O=C(O)/C=C/C(=O)Nc1ccc(-n2ccc(C(F)(F)F)n2)cc1,1.35,98%
C/C(=N/Nc1nc(-c2ccc(Cl)cc2)cs1)c1cccs1,1.36,–
